Assay results: PMC10726135
This is one part of the list. At the low end of the ranking, values are background and their order means little. Measured with an extract: partners may take part in the binding.

Target: T1, HNF4alpha2 (COS-7 nuclear extract) (UniProt P41235)
T1 sequence: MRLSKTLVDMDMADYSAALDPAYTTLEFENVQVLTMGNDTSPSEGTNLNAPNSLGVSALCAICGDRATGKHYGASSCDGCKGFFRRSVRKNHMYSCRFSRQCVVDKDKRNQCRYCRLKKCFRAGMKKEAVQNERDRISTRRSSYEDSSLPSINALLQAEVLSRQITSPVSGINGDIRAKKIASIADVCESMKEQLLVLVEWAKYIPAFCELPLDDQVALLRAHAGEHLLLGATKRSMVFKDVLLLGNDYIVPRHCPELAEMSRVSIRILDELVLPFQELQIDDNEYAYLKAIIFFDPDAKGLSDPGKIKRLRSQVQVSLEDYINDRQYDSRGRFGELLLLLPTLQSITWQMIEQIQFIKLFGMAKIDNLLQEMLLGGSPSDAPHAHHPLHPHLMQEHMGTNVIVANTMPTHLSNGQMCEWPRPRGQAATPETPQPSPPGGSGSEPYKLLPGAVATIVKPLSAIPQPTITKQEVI
Assay: protein-binding microarray
Conditions: COS-7 nuclear extract on double-stranded Agilent 4x180k PBM; binding buffer, salt, pH and temperature not given; high values mean tight binding; double strand, one strand shown; sequences stand for … in …GCCTAGGGAGATTAGAGTATCGGTCGA

Row | Sequence | binding signal (log2 normalized intensity)
1 | TGTATTCATGAGCATGCTTCCCAAATGGAG | -1.13
2 | AAGTACAAAAGAGGCTTCCTGGGCCAGGTC | -1.03
3 | CGCTGTTGATGGGCAGCGCGGCGCGCTGGG | -1
4 | CAAATTTGCCTTGTCCTTAGACAGTAACCC | 0.908
5 | CAGTTTTTGTTTGCACCTCACAGGAAGAAC | 1.15
6 | TGCATAGACTGCCCAGAATTTCCTGTTAGA | -0.238
7 | CCTGCCCATCCCGTGGACTCTGCCTGCCCT | 3.08
8 | CTGAAGGATATTGGCAACGCCTCAGAAGCA | -1.01
9 | AGTTCAACCATACACACATTCCAATCTTCT | -0.221
10 | AAGTTGAATTCTTGACTTTGGACTTTCAAA | 5.18
11 | ATGAGGCCCCAGTGATGACAGCAAGATAAT | -0.755
12 | TCTCTCCCTCCTCCTTTTTTTCCCCTCCCT | 4.61
13 | AAGCAATGCTGGGGACCTTTGGCCTTTACC | 5.13
14 | CACTCAGGCACTGGGATCCAAAGTTCATGG | 3.37
15 | GCCAGTGTGGCTAACAATATGGGGTGGGGA | -1.12
16 | GGAGCATGATGAAATTTCCTCTTACCACAT | -1.07
17 | TAAATAGTGACAAATTGTATAGTTGCTGAT | 0.637
18 | CAGCCAGCCTGAGGCAGTTGGAAAATATTT | -1.18
19 | GAATAGTTAAGTAACGTGTCAGAGGTCACT | 3.2
20 | TGCTCCAGCCAGAGGCCTTATCTGGCCGCC | -1.07
21 | TGTGTACTCTATCCAGTAGAGGGCATAGCA | 1.72
22 | TTGTTTTAAGTTCATAGGTCCTCTTGGAAG | 1.34
23 | CTGGCAGAATTCCTTCTTGCTTAGGATAGG | -1.14
24 | AAAGTTCAAGTCATAACTGGATGGTGCCTA | -1.13

Row | Sequence | binding signal (log2 normalized intensity)
25 | TAGACCTGGCCTCGGGGAGCTGTGGGCCTC | -0.249
26 | TAGGGACCGCAAATAAAAGAGGGCCCCATC | -1.03
27 | GTGACCTCTTATCTCATCCTGTGACCAAGA | 1.11
28 | GGTCATTTGTTTTTACAGACAGGCATGACA | 1.37
29 | CAGAGACGGCAAGCCATAGTTAACCCAGAA | -0.915
30 | TCCACACCCCAGCCTGCCCTCCTAGGGACA | 3.39
31 | CAGCCCTCCTCTCTGTAGTCCTCAGCAATA | 0.713
32 | ACCAAGGACAAACTGAGGAGGACATACTCC | -1.06
33 | TGTGTACGGACGCATCTGTCGGCTCTCGTA | -0.918
34 | GACAGATAAGAAGGGGTCAGACCAGACAGC | -0.316
35 | GACGTTCTGCCCCTTATCTTCTGGCCACCT | 1.91
36 | GACAGAAGCAGGACTTAAACACCAGTACTC | -1.14
37 | CGGAGGGCGGGGCGGGGCAGCAGGGAAGAG | -1.18
38 | AGCTAAATAAATAACTCTAAGAAATAGGTT | -1.26
39 | AAACGTTCTTCTCTAACCCTCCTTTTAATC | 1.36
40 | CAACATGTGGGCAAATAGGATTAGGAAACC | -0.788
41 | CCAGTTAATGCTGAACTTTAGCTCACTGTT | 1.77
42 | GTAACTATGGGGCAAAGTGCAAGCAAACAT | 2.56
43 | GATTTTCAGGTTCCCCAGTGAGGATGTGTG | 1.93
44 | TGCCCCCGATAGCACTATTAGTCTTAGATT | 1.99
45 | ATGTCTCCAGAAACCAACCTTTGATCATTC | 4.87
46 | GCCCACTCCTCCCTCAGGGATCTTTGCACT | 2.45
47 | AGGGTCAAAGGGTCAAGTTCAGATCCTGGC | 4.58
48 | GTCAAACTGGTTTCTTGTCTGCCCCAGGGC | 2.34

Row | Sequence | binding signal (log2 normalized intensity)
49 | TTTAGGCTGTCAGCCACCAAAGCAGCTAGC | -1.05
50 | GTCAAGCAATGATCTTCATGAACTTCTGTC | 1.26
51 | CCACAAGGGTTTAAATCTGACTGCACTGCA | -1.02
52 | GTGCTGGGATTACAGGCGTGAGCCACCGCG | -1.01
53 | TAATCTTCACTAGACCTAGATAAGGGAGAT | -1.12
54 | TGTTCTAGCTCGGGGGCCCTTCCCCCCTCT | 2.64
55 | TGACCACATGCCCTCAGTACAGGGCGTCCT | -0.194
56 | ATATTCTCTCGTCACCTCCACCCACCCGTG | 4.48
57 | TATTAGAGTCCCTTTTTTAGACAAGGAAAA | 0.595
58 | AGAAAGGCAGAAAACTCAGATTCCTATGGT | -0.875
59 | GTCACTCCCACCCTTCCTGTTATGTTTTTT | 2.11
60 | GGACTTGGGACTTTCGAGTTAATGCTGGAG | 2.54
61 | CCAGGTGTAGATAAACTGGAAAGGGCTTCA | -1.18
62 | TTGTTGACATCTGCTTCCAAAGAGCTCAAC | -0.7
63 | GTTCTGGACTTCTCTGCCCTCTTCCCTCTA | 2.62
64 | AAAGGTCTGCTGTACATATTTGCCAAGTGA | 1.39
65 | TTACAAAGGTCACACACCTGTGCAAACATT | 0.854
66 | AGTTGGTGAGAACAGAGTCTCCGAGGAACC | -1.13
67 | CTTCCTGGCCCTAGCTGGGTTTTTCAAAGG | 0.868
68 | CAAAGGTCAGGACAAGGCTCTGGTGGGGAA | 1.36
69 | GGGATGTTTGGCAGCTGAGGATTGTCAGGC | 0.513
70 | CCCCTTCTGAGTCTCCAATGTCCATTATAT | 1.37
71 | ACAAGAGGAATGTTCATTCATTCACCTTTC | 0.817
72 | GGCGCGCGGGCCGGGAGGGGGACGCTTTCT | -1.18

Row | Sequence | binding signal (log2 normalized intensity)
73 | CAAACTTCTCCACTCTTCATAATTACCATT | 0.957
74 | TCTGAGGGCCAGCAGTGCCCAAAGCCCAAG | -1.17
75 | AATGTGATAGACAGGATGCCTGAGTAATTA | -0.305
76 | CATTCCATTACTGCAGAGGCTGGTTCACAC | 1.06
77 | TACAGAGGCTCTGAGAGTCTCAGTGACTCA | -1.24
78 | CTGTTATCAGAGCTGGAGGAGACCTTTGGA | 5.09
79 | CAGCAGACTCAGAAAAATATGTGGACTTCA | 2.49
80 | TAAAGTTCATTGCTTTGAGCATGAGAGTTC | 0.748
81 | TTGCTTGTGAATGAAAGAGACTAGTATGTA | 0.445
82 | GGCGCGCCTGCCCTTCGCTCCCCGACCTCC | 3.78
83 | CTGAGCTAAGATAACCATCAAATCCTCGGA | -1
84 | ATATAAAAACTAACCATACTGAGTGTTGGT | 0.741
85 | TGTGTGTGTGTGTGTGTGTGTGTGTATGCC | 3.17
86 | GTGGAGCAGCTTTCTCTGCACACACTCACA | -1.09
87 | GAGCCAAGGGAGCACAACCCGGGCGCACAA | -1.05
88 | CTGAATCAAGGTTTCTTTCCCTGGGGTCAA | 3.59
89 | AACGAGACCTTAGCCCTGAACAAACAGCTT | -1.09
90 | TTGCAACCTTTGCCCTGTTGTCTTTGCCCA | 4.15
91 | CAGGACCTGCCATTTTTTCAAACACCTGGG | -1.09
92 | GCCGGGAAAACCCGGAGCGGAGCATCCCTC | -1.17
93 | TGCTCCCAAAGCAAACCTCCCCAGCCCAGG | 3.2
